Data from PMC12820563.
Some of the results follow. The list includes weakly bound sequences.

What follows are sequences tested against T1, MBP-FoxP3dN (UniProt Q99JB6) (assay: PD-seq (MBP pull-down with sequencing)). Details: 20 mM Tris-HCl pH 7.5, 100 mM NaCl, 1.5 mM MgCl2, 0.4 uM protein, 0.1 uM dsDNA library, 30 min, room temperature, amylose pull-down; high values mean tight binding; double strand, one strand shown.
T1 sequence: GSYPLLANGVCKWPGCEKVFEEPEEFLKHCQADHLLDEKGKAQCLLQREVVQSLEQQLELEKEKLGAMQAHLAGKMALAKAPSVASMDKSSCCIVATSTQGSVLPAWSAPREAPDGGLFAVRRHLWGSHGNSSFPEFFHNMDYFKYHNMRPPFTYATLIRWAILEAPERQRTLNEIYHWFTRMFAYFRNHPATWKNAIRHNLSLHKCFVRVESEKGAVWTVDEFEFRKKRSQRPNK

Sequence	binding signal (RPM ratio (pull-down/input))
GATGATTGTTCTCCCAGCTGATGAATTGGGTGTTTCGAGTAAACAAATTTTCCTAATCTTTCTGTTCAAGCGCCATCTAC	1.38
GATGATTGTTCTCCCAGCTGATGAATTGCCTCGGTCGAGTAAACAAATTTTCCTAATCTTTCTGTTCAAGCGCCATCTAC	0.565
GATGATTGTTCTCCCAGCTGATGAATTTGAATTATCGAGTAAACAAATTTTCCTAATCTTTCTGTTCAAGCGCCATCTAC	0.846
GATGATTGTTCTCCCAGCTGATGAATTCGAGCTATCGAGTAAACAAATTTTCCTAATCTTTCTGTTCAAGCGCCATCTAC	0.48
GATGATTGTTCTCCCAGCTGATGAATTACCACGATCGAGTAAACAAATTTTCCTAATCTTTCTGTTCAAGCGCCATCTAC	0.336
GATGATTGTTCTCCCAGCTGATGAATTGCCAACATCGAGTAAACAAATTTTCCTAATCTTTCTGTTCAAGCGCCATCTAC	1.15
GATGATTGTTCTCCCAGCTGATGAATTTATCATTTCGAGTAAACAAATTTTCCTAATCTTTCTGTTCAAGCGCCATCTAC	3.08
GATGATTGTTCTCCCAGCTGATGAATTCTTTCGCTCGAGTAAACAAATTTTCCTAATCTTTCTGTTCAAGCGCCATCTAC	0.205
GATGATTGTTCTCCCAGCTGATGAATTCGAAATATCGAGTAAACAAATTTTCCTAATCTTTCTGTTCAAGCGCCATCTAC	0.344
GATGATTGTTCTCCCAGCTGATGAATTCCGCACATCGAGTAAACAAATTTTCCTAATCTTTCTGTTCAAGCGCCATCTAC	1.16
GATGATTGTTCTCCCAGCTGATGAATTGGTTGTCTCGAGTAAACAAATTTTCCTAATCTTTCTGTTCAAGCGCCATCTAC	4.48
GATGATTGTTCTCCCAGCTGATGAATTTATTCTTTCGAGTAAACAAATTTTCCTAATCTTTCTGTTCAAGCGCCATCTAC	0.542
GATGATTGTTCTCCCAGCTGATGAATTTTAAAGTTCGAGTAAACAAATTTTCCTAATCTTTCTGTTCAAGCGCCATCTAC	0.205
GATGATTGTTCTCCCAGCTGATGAATTTGGGAGGTCGAGTAAACAAATTTTCCTAATCTTTCTGTTCAAGCGCCATCTAC	0.291
GATGATTGTTCTCCCAGCTGATGAATTGCCGTCGTCGAGTAAACAAATTTTCCTAATCTTTCTGTTCAAGCGCCATCTAC	0.833
GATGATTGTTCTCCCAGCTGATGAATTTTCCTAATCGAGTAAACAAATTTTCCTAATCTTTCTGTTCAAGCGCCATCTAC	0.279
GATGATTGTTCTCCCAGCTGATGAATTGATCGCCTCGAGTAAACAAATTTTCCTAATCTTTCTGTTCAAGCGCCATCTAC	0.544
GATGATTGTTCTCCCAGCTGATGAATTGGAGAACTCGAGTAAACAAATTTTCCTAATCTTTCTGTTCAAGCGCCATCTAC	0.203
GATGATTGTTCTCCCAGCTGATGAATTTACCTGATCGAGTAAACAAATTTTCCTAATCTTTCTGTTCAAGCGCCATCTAC	0.352
GATGATTGTTCTCCCAGCTGATGAATTGGGTGGCTCGAGTAAACAAATTTTCCTAATCTTTCTGTTCAAGCGCCATCTAC	0.493
GATGATTGTTCTCCCAGCTGATGAATTGCAGGGATCGAGTAAACAAATTTTCCTAATCTTTCTGTTCAAGCGCCATCTAC	0.546

Sequence	binding signal (RPM ratio (pull-down/input))
GATGATTGTTCTCCCAGCTGATGAATTAGTGTCGTCGAGTAAACAAATTTTCCTAATCTTTCTGTTCAAGCGCCATCTAC	1.73
GATGATTGTTCTCCCAGCTGATGAATTTTCCGGATCGAGTAAACAAATTTTCCTAATCTTTCTGTTCAAGCGCCATCTAC	0.147
GATGATTGTTCTCCCAGCTGATGAATTTGGCAACTCGAGTAAACAAATTTTCCTAATCTTTCTGTTCAAGCGCCATCTAC	5.44
GATGATTGTTCTCCCAGCTGATGAATTGAAATCGTCGAGTAAACAAATTTTCCTAATCTTTCTGTTCAAGCGCCATCTAC	0.274
GATGATTGTTCTCCCAGCTGATGAATTGGGTACATCGAGTAAACAAATTTTCCTAATCTTTCTGTTCAAGCGCCATCTAC	0.508
GATGATTGTTCTCCCAGCTGATGAATTGGATTGATCGAGTAAACAAATTTTCCTAATCTTTCTGTTCAAGCGCCATCTAC	0.807
GATGATTGTTCTCCCAGCTGATGAATTATTTAGATCGAGTAAACAAATTTTCCTAATCTTTCTGTTCAAGCGCCATCTAC	1.78
GATGATTGTTCTCCCAGCTGATGAATTACCGTGTTCGAGTAAACAAATTTTCCTAATCTTTCTGTTCAAGCGCCATCTAC	0.527
GATGATTGTTCTCCCAGCTGATGAATTGCCGACGTCGAGTAAACAAATTTTCCTAATCTTTCTGTTCAAGCGCCATCTAC	0.478
GATGATTGTTCTCCCAGCTGATGAATTCTTAACCTCGAGTAAACAAATTTTCCTAATCTTTCTGTTCAAGCGCCATCTAC	0.208
GATGATTGTTCTCCCAGCTGATGAATTGGCACGTTCGAGTAAACAAATTTTCCTAATCTTTCTGTTCAAGCGCCATCTAC	0.464
GATGATTGTTCTCCCAGCTGATGAATTCATGTTTTCGAGTAAACAAATTTTCCTAATCTTTCTGTTCAAGCGCCATCTAC	1.41
GATGATTGTTCTCCCAGCTGATGAATTCGCCAGGTCGAGTAAACAAATTTTCCTAATCTTTCTGTTCAAGCGCCATCTAC	0.286
GATGATTGTTCTCCCAGCTGATGAATTGGACTAATCGAGTAAACAAATTTTCCTAATCTTTCTGTTCAAGCGCCATCTAC	0.267
GATGATTGTTCTCCCAGCTGATGAATTAATTCGTTCGAGTAAACAAATTTTCCTAATCTTTCTGTTCAAGCGCCATCTAC	0.368
GATGATTGTTCTCCCAGCTGATGAATTATTGCGTTCGAGTAAACAAATTTTCCTAATCTTTCTGTTCAAGCGCCATCTAC	2.15
GATGATTGTTCTCCCAGCTGATGAATTTCCGGAGTCGAGTAAACAAATTTTCCTAATCTTTCTGTTCAAGCGCCATCTAC	0.172
GATGATTGTTCTCCCAGCTGATGAATTGACATATTCGAGTAAACAAATTTTCCTAATCTTTCTGTTCAAGCGCCATCTAC	0.62
GATGATTGTTCTCCCAGCTGATGAATTTTGAATCTCGAGTAAACAAATTTTCCTAATCTTTCTGTTCAAGCGCCATCTAC	2.36
GATGATTGTTCTCCCAGCTGATGAATTCAATTTGTCGAGTAAACAAATTTTCCTAATCTTTCTGTTCAAGCGCCATCTAC	2.23
GATGATTGTTCTCCCAGCTGATGAATTTAGATTCTCGAGTAAACAAATTTTCCTAATCTTTCTGTTCAAGCGCCATCTAC	0.815

Sequence	binding signal (RPM ratio (pull-down/input))
GATGATTGTTCTCCCAGCTGATGAATTCCAAATATCGAGTAAACAAATTTTCCTAATCTTTCTGTTCAAGCGCCATCTAC	0.564
GATGATTGTTCTCCCAGCTGATGAATTGTCTCTCTCGAGTAAACAAATTTTCCTAATCTTTCTGTTCAAGCGCCATCTAC	0.457
GATGATTGTTCTCCCAGCTGATGAATTTCGTGGGTCGAGTAAACAAATTTTCCTAATCTTTCTGTTCAAGCGCCATCTAC	0.54
GATGATTGTTCTCCCAGCTGATGAATTTTGCTAATCGAGTAAACAAATTTTCCTAATCTTTCTGTTCAAGCGCCATCTAC	0.575
GATGATTGTTCTCCCAGCTGATGAATTCGGTCACTCGAGTAAACAAATTTTCCTAATCTTTCTGTTCAAGCGCCATCTAC	0.603
GATGATTGTTCTCCCAGCTGATGAATTGCGTAGCTCGAGTAAACAAATTTTCCTAATCTTTCTGTTCAAGCGCCATCTAC	1.02
GATGATTGTTCTCCCAGCTGATGAATTTGCTTACTCGAGTAAACAAATTTTCCTAATCTTTCTGTTCAAGCGCCATCTAC	6.78
GATGATTGTTCTCCCAGCTGATGAATTAGTGCCCTCGAGTAAACAAATTTTCCTAATCTTTCTGTTCAAGCGCCATCTAC	0.774
GATGATTGTTCTCCCAGCTGATGAATTACAACTGTCGAGTAAACAAATTTTCCTAATCTTTCTGTTCAAGCGCCATCTAC	0.794
GATGATTGTTCTCCCAGCTGATGAATTCATCGATTCGAGTAAACAAATTTTCCTAATCTTTCTGTTCAAGCGCCATCTAC	0.372
GATGATTGTTCTCCCAGCTGATGAATTAACCAAGTCGAGTAAACAAATTTTCCTAATCTTTCTGTTCAAGCGCCATCTAC	0.181
GATGATTGTTCTCCCAGCTGATGAATTCTATGACTCGAGTAAACAAATTTTCCTAATCTTTCTGTTCAAGCGCCATCTAC	0.398
GATGATTGTTCTCCCAGCTGATGAATTCTGATTGTCGAGTAAACAAATTTTCCTAATCTTTCTGTTCAAGCGCCATCTAC	3.01
GATGATTGTTCTCCCAGCTGATGAATTAAAGCTCTCGAGTAAACAAATTTTCCTAATCTTTCTGTTCAAGCGCCATCTAC	0.451
GATGATTGTTCTCCCAGCTGATGAATTCTCTCCGTCGAGTAAACAAATTTTCCTAATCTTTCTGTTCAAGCGCCATCTAC	0.188
GATGATTGTTCTCCCAGCTGATGAATTCTAACTTTCGAGTAAACAAATTTTCCTAATCTTTCTGTTCAAGCGCCATCTAC	0.375
GATGATTGTTCTCCCAGCTGATGAATTTCATTATTCGAGTAAACAAATTTTCCTAATCTTTCTGTTCAAGCGCCATCTAC	1.44
GATGATTGTTCTCCCAGCTGATGAATTCGTGTGGTCGAGTAAACAAATTTTCCTAATCTTTCTGTTCAAGCGCCATCTAC	1.4
GATGATTGTTCTCCCAGCTGATGAATTTCGGTAGTCGAGTAAACAAATTTTCCTAATCTTTCTGTTCAAGCGCCATCTAC	0.427
GATGATTGTTCTCCCAGCTGATGAATTGACGAGCTCGAGTAAACAAATTTTCCTAATCTTTCTGTTCAAGCGCCATCTAC	0.244
GATGATTGTTCTCCCAGCTGATGAATTTTCGGTCTCGAGTAAACAAATTTTCCTAATCTTTCTGTTCAAGCGCCATCTAC	0.366
